Where “and” joins values, the source holds several entries; their conditions need not be identical. Identical values can stand only once.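 Five compound concentrations were applied to cells in 96-well plates for 48 hours; endpoints were derived by simple linear interpolation of the resulting dose-response curve. GI50 is the concentration that inhibits growth by half. TGI denotes the concentration required for complete inhibition of growth.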 Numbered stars: 1 amine (or outer) side, 2 acyl side, 3 side chain; on linkers, the order of the positions; unused ones are H or OH. Square brackets hold non-standard residues; d marks the D form. Peptide text beside a SMILES is read from it. * marks the point of attachment. X10 = NCCCCC(N[*:1])C(=O)CN1CCCC1C(=O)[*:2]; Pentadecanoyl = CCCCCCCCCCCCCCC(=O)*

This assay concerns NCI-H322M lung. In words: NCI-60 cell line screen, 48 h.
`CC1=CCC(=O)[C@]2(C)C(CC(=O)O)[C@]3(C)C4=C(C)C(c5ccoc5)C[C@@H]4O[C@@H]3[C@H](O)[C@@H]12` (some centres not stated) displayed a TGI of over 100 µM.
Still for that read-out and setting: to `Cc1cnc2cc(Cl)ccc2c1SCC(=O)O` belongs over 100 µM.
For `COC(=O)C1=C(C)NC(C)=C(C(=O)OC)C1c1ccccc1[N+](=O)[O-]`, the GI50 was 97.3 µM and the TGI is over 100 µM.
Consider `COc1ccc(Cn2nc(OCc3ccccc3)c3cc([N+](=O)[O-])ccc32)cc1`, for which the TGI was over 100 µM.
The compound `C=CCN1C(=O)C/C(=C2/CCC(=O)N2CC=C)C1=O` returned a TGI of over 100 µM.
Still for that read-out and setting: the result for `CCN(CC)CCC1(C(=O)OC)SCCc2ccc(C)cc21` (configuration not stated) reads over 100 µM.
Turning to `CCN(CC)CCn1nc2c3c(cccc3c1=O)-c1ccccc1-2`, the GI50 is 3.43 µM and the TGI was determined as 24.1 µM.
For `COc1cc(C2CC(c3cc(Cl)c(C)cc3O)=NN2c2ccc(S(N)(=O)=O)cc2)cc(OC)c1OC` (configuration not stated), in that order: 2.86 µM and 12.6 µM.
Consider `O=C(O)CNCc1c2ccccc2nc2ccccc12`, for which the TGI is over 100 µM.
Compound `O=C1/C(=C/Cc2ccco2)N=C(c2ccccc2)N1c1nc2c(Cl)cc(Cl)cc2s1` yielded a TGI of over 100 µM.
`O=C(O)CSc1nnc(COc2ccccc2)n1-c1ccccc1` had a TGI of over 100 µM.
Regarding `COc1ccc(CN[C@H]2CCc3cc(OC)c(OC)c(OC)c3-c3ccc(SC)c(=O)cc32)c(OC)c1OC`, the GI50 was under 0.01 µM and the TGI is over 100 µM.
Regarding `COc1ccc(C2C3=C(COC3=O)N(CCO)c3cc4c(cc32)CCC4)cc1OC` (configuration not stated), the GI50 was 2.15 µM and the TGI was over 50 µM.
In turn, `Cc1nc2cccc(F)c2c(=O)n1-c1nnc(C2CC2)s1` displayed a TGI of over 10 µM.
Turning to `CCN1CCN(c2nc(NNC(=O)c3cccc(OC)c3)nc(N3CCN(C(c4ccccc4)c4ccccc4)CC3)n2)CC1`, the GI50 is 2.59 µM and the TGI worked out at 6.8 µM.
For `CC[C@@]1(O)C(=O)N(CCN(C)C)Cc2c1cc1n(c2=O)Cc2cc3ccccc3nc2-1`, in that order: 75.4 µM and over 100 µM.
As to `N#Cc1nc(C(=O)c2ccccc2)oc1N`, the TGI was over 100 µM.
On the same count and under the same terms, to `CC(NC1=NCCO1)c1ccco1` (configuration not stated) belongs over 100 µM.
On to `CC(=O)O[C@H]1Cc2c([nH]c3ccccc23)[C@@H](c2ccc(Cl)cc2)N1C(=O)CCNC(C)(C)C`, for which the GI50 is 4.51 µM and the TGI came out at 9.06 µM.
On to `COc1ccc2nc(NC(=O)C(=O)C(C#N)c3ccc(CC#N)cc3)sc2c1` (configuration not stated), for which the TGI is over 100 µM.
Same read-out and setting: to `CC(=O)O[C@H]1CC[C@]2(C=O)[C@H]3CC[C@]4(C)[C@@H](C5=CC(=O)OC5)CC[C@]4(O)[C@@H]3CC[C@]2(O)C1` belongs 3.06 µM; to `c1ccc(C2C3=C(CCCC3)Nc3nnnn32)cc1` (configuration not stated), over 100 µM.
Turning to `O=C(Nc1ccc(I)cc1F)c1cc(F)ccc1O`, the GI50 is 0.428 µM and the TGI is over 64.5 µM.
The compound `O=C(OCC(OC(=O)c1ccccc1)C1CC(C(O)C2CCCCC2)C(=O)O1)c1ccccc1` (configuration not stated) registered a TGI of over 100 µM.
On the same count and under the same terms, the result for `Cc1cc(=O)oc2c(CN(CCCl)CCCl)c(O)ccc12` reads over 100 µM.
On the same count and under the same terms, to `CC(C)c1cc(C(C)C)c(B(c2ccccc2)c2ccccc2)c(C(C)C)c1Br` belongs over 100 µM.
For the compound `CCc1cc(Nc2nccc(-c3c(-c4ccc(OC)c(C(=O)Nc5c(F)cccc5F)c4)nc4ccccn34)n2)c(OC)cc1N1CCC(N2CCN(S(C)(=O)=O)CC2)CC1`, the GI50 is over 100 µM and the TGI is over 100 µM.
In turn, `Cc1cc(S(=O)(=O)Nc2n[nH]c(N)n2)c(S)cc1Cl` gave a TGI of over 10 µM.
Still for that read-out and setting: to `COc1nc2ncc([C@@H](O)[C@H](O)CO)nc2c(=O)[nH]1` belongs over 100 µM.
`CC1CC(=O)CC[C@@H]1OCc1ccccc1` (some centres not stated): the TGI is over 100 µM.
For `COC(=O)C1=C(c2cc(OC)c(OC)c(OC)c2)OC(c2cc(OC)c(OC)c(OC)c2)C1` (configuration not stated), the TGI is over 100 µM.
The same measure, in the same setting: the result for `COc1cc2ccc(C(=O)O)cc2cc1OC` reads over 100 µM; that for `CCOC(=O)/C=C/C(Br)=C(Br)/C=C/C(=O)OCC`, over 100 µM.
As for `NC(=S)c1cn(C2OC(CO)C(O)C2O)c2ncnc(N)c12` (configuration not stated), the GI50 was 0.209 µM and the TGI came out at 5.82 µM.
For `O=C1c2ccccc2-c2c1c1ccccc1c(=O)n2CCCNCCO`, in that order: 1.92 µM and 9.65 µM.
`COC(=O)C12CC(NC(=O)c3csc([C@@H](C[C@H](C(C)C)N(C)C(=O)[C@@H](NC(=O)[C@H]4CCCCN4C)C(C)C)OC(C)=O)n3)(C1)C2`: the GI50 was 0.0306 µM and 0.00333 µM; the TGI was over 33.3 µM.
`Cc1cccc2c1C(=O)OC2(c1cccc2ccccc12)c1cccc2ccccc12`: the TGI was over 100 µM.
The same measure, in the same setting: to `C(=N\Nc1nnc(-c2nnc(N/N=C/c3ccccc3)o2)o1)/c1ccccc1` belongs over 10 µM; to `CC(C)S(=O)(=O)ON1C(=O)c2ccc([N+](=O)[O-])cc2C1=O`, over 100 µM.
As to `S=C1NC2=C(CCOc3c2ccc2ccccc32)C(c2ccc(Cl)cc2)N1` (configuration not stated), the GI50 was 37.8 µM and the TGI is over 100 µM.
Regarding `Clc1ccc(C2=NNC(c3cccc(Cl)c3)C2)cc1` (configuration not stated), the TGI is over 100 µM.
Same read-out and setting: the result for `C[S+](C)C1(c2ccccc2)C(=O)c2ccccc2C1=O` reads over 100 µM.
Still for that read-out and setting: to `Cn1c(-c2cccs2)cc(-c2ccsc2)c1-c1ccsc1` belongs over 100 µM.
Consider `CCOC(=O)Nc1ccc2nc(Sc3ccc(Cl)cc3)sc2c1`, for which the GI50 is 25 µM and the TGI was over 100 µM.
For `O=C(c1nc2ccccc2[nH]1)C1C(c2cccc([N+](=O)[O-])c2)C2CC3CCCCC3N2[C@@]12C(=O)Nc1cc(Cl)ccc12` (some centres not stated), in that order: 2.4 µM and 6.98 µM.
As for `CCOC(=O)CCC1(C(=O)O[C@@H]2C[C@H](C)CC[C@H]2C(C)C)CCCCC1=O` (some centres not stated), the TGI is over 100 µM.
The same measure, in the same setting: the result for `O=[N+]([O-])C1(CO)COC2(OC1)c1ccccc1-c1ccccc12` reads over 100 µM; that for `CC1CC/C(=C\c2ccc(F)cc2)C2=C1C(c1ccc(F)cc1)NC(=S)N2` (configuration not stated), over 100 µM.
Consider `Clc1ccc2c(NCCNc3nc(Cl)nc4ccccc34)ccnc2c1`, for which the GI50 is 1.06 µM and the TGI stood at 2.32 µM.
`COc1cc(C)c(S(=O)(=O)N(CCCN)OCCCN)c(C)c1C` gave a TGI of over 100 µM.
The same measure, in the same setting: the result for `O=C(c1cccs1)N(C(=O)N1CCCCC1)c1ccccc1` reads over 100 µM.
In the case of `Nc1ccc(Sc2ccc3c4c2cccc4c(=O)n2c4ccccc4nc32)cc1`, the GI50 is 7.77 µM and the TGI stood at 35.1 µM.
On to `C=C(C)[C@@H]1CC[C@@H]2C(=CC[C@]3(C)C([C@H](C)CC/C=C(/C)C(=O)O)CC[C@@]23C)[C@@]1(C)CCC(=O)O` (some centres not stated), for which the TGI was 62.8 µM.
For the compound `CCN(CC)Cc1cc(Nc2c3ccc(Cl)cc3nc3c(C)cccc23)ccc1O`, the GI50 is 1.82 µM and the TGI amounted to 3.91 µM.
For `CCCCCCCCCCCCCCC(=O)NC(CCCCN)C(=O)CN1CCCC1C(=O)NCC(=O)NC(Cc1ccccc1)C(=O)N1CCCC1C(=O)NC(CO)C(=O)NC(Cc1ccc(O)cc1)C(=O)NC(CCCCN)C(=O)NC(CC(C)C)C(=O)NC(CCCN=C(N)N)C(=O)N1CCCC1C(=O)NCC(N)=O` (configuration not stated) (Pentadecanoyl-[X10]GFPSYKLRPG-NH2; configuration not given here), in that order: 17.2 µM and 41.8 µM.
For the compound `O=C1NC(=Nc2ccccc2Cl)SC1C(=O)Nc1ccc([N+](=O)[O-])cc1[N+](=O)[O-]` (configuration not stated), the TGI was over 100 µM.
As for `CCOc1c(Cc2ccccc2)c(=O)n2c3ccccc3n3c(=O)n(C)c(=O)c1c23`, the TGI was over 100 µM.
Still for that read-out and setting: the result for `CC1C/C(=C\c2ccc(O)c(O)c2)C(=O)/C(=C/c2ccc(O)c(O)c2)C1` (configuration not stated) reads 26.8 µM; that for `C/C(CC(=O)Nc1cc(Cl)c(Cl)cc1Cl)=N\NS(=O)(=O)c1ccc(C)cc1`, over 100 µM.
For `COC(=O)CCCCCCCCC(=O)c1c(C)[nH]c(/C=C2\N=C(c3ccc[nH]3)C=C2OC)c1C`, the GI50 is over 41.3 µM and the TGI is over 100 µM.
In turn, `O=C(O)CCC(NC(=O)/C(=C/c1ccccc1)NC(=O)c1ccccc1)C(=O)O` (configuration not stated) yielded a TGI of over 100 µM.
Still for that read-out and setting: to `O=C(/C=C/c1ccc(OCCCOc2ccc(/C=C/C(=O)c3ccc(Cl)cc3)cc2)cc1)c1ccc(Cl)cc1` belongs over 100 µM.
On to `CO[C@H]1/C=C/C=C/C=C/C[C@H](OC(=O)[C@@H](C)NC(=O)C2CCCCC2)[C@H](C)[C@@H](O)/C(C)=C\CCC2=CC(=O)C=C(NC(=O)C1)C2=O`, for which the GI50 was 0.14 µM and the TGI was determined as 1.3 µM.
With `COc1ccc(OC)c([N+](=O)[O-])c1-c1nc2sc(C)cn2c1/C=N/N=C(N)N`, the TGI was 32.6 µM.
Still for that read-out and setting: the result for `CN1C(=O)[C@](C)(Cc2ccc(F)cc2)N(C(=O)OC(C)(C)C)[C@@H]1C(C)(C)C` reads over 100 µM; that for `C/C(=C\c1ccccc1)n1c(=O)cc(C)n1C`, over 100 µM.
In the case of `N#CCCCCCn1c2ccccc2c2c3c(c4c5ccccc5[nH]c4c21)C(=O)N(O)C3=O`, the GI50 is 2.28 µM and the TGI was 7.91 µM.
Regarding `CC(=O)OC1COC(n2c(N)c(C#N)c(-c3ccccc3)c(C#N)c2=S)C(OC(C)=O)C1OC(C)=O` (configuration not stated), the TGI is over 100 µM.
Still for that read-out and setting: the result for `CCOC(=O)c1sc2[n+](c1C)C(=O)/C(=C/c1ccccc1Cl)S2` reads 64.1 µM.
Same read-out and setting: the result for `C/C(=N/NC(=O)c1ccccc1Nc1ccccc1C(=O)N/N=C(\C)c1ccc(C)cc1)c1ccc(C)cc1` reads over 100 µM.
For `O=C(CSCC(=O)N/N=C\c1cccc(Br)c1)N/N=C\c1cccc(Br)c1`, the TGI amounted to 27.4 µM.
In the case of `CCN(CC)c1ccc(/C=C2/NC(=O)NC2=O)cc1`, the GI50 was 35.8 µM and the TGI was over 100 µM.
For `CCN(Cc1cccc(C)c1)c1ccc(CO)c(Cl)c1`, in that order: 11.1 µM and 24.2 µM.
On the same counts, the results for `CN1CCN(Cc2ccc(NC(=O)c3cncc(C#Cc4cncc5[nH]ncc45)c3)cc2C(F)(F)F)CC1` are 0.987 µM and 5.78 µM.
`BrCC[N+]12CCCN1CCC2`: the TGI came to 30.2 µM.
For `c1ccc2c(Nc3ccc4c(c3)OCO4)c3ccoc3nc2c1`, the GI50 is 23.4 µM and the TGI stood at 41.2 µM.
On the same counts, the results for `COC(=O)C([O][Ge]([CH3])([CH3])[CH3])c1ccccc1` (configuration not stated) are over 100 µM and over 100 µM.
Consider `O=C1/C(=C/c2ccc(Cl)cc2)COc2ccc(Br)cc21`, for which the TGI is over 100 µM.
On the same count and under the same terms, the result for `O=C(N(C1=CCCC1)N(c1ccccc1)c1ccccc1)C(F)(F)F` reads 87.4 µM.

The record behind these values is PubChem BioAssay (NCI).
